{
  "source": "paper PMC12040169",
  "about": "(PLOS Biology, 2025)",
  "note": "This is one part of the list.",
  "data": [
    {"tested_on": "T1, C. trachomatis L2/434/Bu expressing GFP (CTL2-GFP)", "T1 construct": "L2/434/Bu GFP intracellular growth in HeLa cells", "parameters": "species or system HeLa; C. trachomatis total inclusion area by high-content imaging, normalised to DMSO", "settings": "total inclusion area; 28.5 h, 10 µM; inhibitor", "procedure,_shortened": "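Post-fluorescence-read fixation, DNA staining with Hoechst and high-content imaging; GFP inclusion area and number per well, and nuclei counts, used as proxies for bacterial growth and host viability.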", "values": [
      {"molecule": "O=C(c1ccco1)N1CCN(C(=O)c2ccco2)CC1", "note": "[CBK068272]", "% of control remaining": 98.9097},
      {"molecule": "CC1(C)NC(=O)N(CCCC(=O)NCc2coc(-c3cccs3)n2)C1=O", "note": "[CBK237157]", "% of control remaining": 86.7347},
      {"molecule": "O=C1c2ccc(OCCOc3ccc4c(c3)C(=O)N(c3ccc(O)cc3)C4=O)cc2C(=O)N1c1ccc(O)cc1", "note": "[CBK262668]", "% of control remaining": 99.7392},
      {"molecule": "CC1CC(N(C(=O)c2cccc(Br)c2)c2ccccc2)c2ccccc2N1", "note": "(stereo not shown) [CBK262966]", "% of control remaining": 106.726},
      {"molecule": "CC[C@H](Cn1c(=O)oc2ccccc21)NC(=O)Cc1ccsc1", "note": "[CBK284543]", "% of control remaining": 99.3412},
      {"molecule": "CC(C)Oc1ccc(C(F)(F)F)cc1N", "note": "[CBK028895C]", "% of control remaining": 49.3509},
      {"molecule": "O=C(CNC(=O)c1ccccc1)N/N=C/c1ccc(Br)cc1", "note": "[CBK260957]", "% of control remaining": 104.999},
      {"molecule": "COc1ccc(-c2ccc(OC)cc2C(=O)Nc2ccc(Cn3cncn3)cc2)cc1", "note": "[CBK285588]", "% of control remaining": 79.4874},
      {"molecule": "COc1ccc(NC2=CC(=O)CC(c3ccc(C)cc3)C2)c(OC)c1", "note": "(stereo not shown) [CBK264845]", "% of control remaining": 94.0378},
      {"molecule": "Cc1cc(N2CCN(C(=O)c3c[nH]c(=O)[nH]3)CC2)nc(C(C)C)n1", "note": "[CBK296681]", "% of control remaining": 94.0273},
      {"molecule": "Cc1cc(C)c(OCCOCCN2CCNCC2)c(Br)c1", "note": "[CBK266079G]", "% of control remaining": 75.674},
      {"molecule": "Cc1cc2nc(SCCNC(=O)c3ccc(Cl)cc3)nc(C)c2cc1C", "note": "[CBK266223]", "% of control remaining": 106.315},
      {"molecule": "Cn1nc(C2CCCC2)cc1[C@H]1CN2CC[C@H]1C[C@@H]2CNS(=O)(=O)c1ccccc1", "note": "[CBK288741]", "% of control remaining": 80.485},
      {"molecule": "O=C(NCc1ccccc1)c1ccc(N2C(=O)CSC23C(=O)Nc2ccccc23)cc1", "note": "(stereo not shown) [CBK093476]", "% of control remaining": 79.9702},
      {"molecule": "Cc1nc(CCNC(=O)N2CCC(Oc3cccnc3)CC2)sc1Cl", "note": "[CBK306636]", "% of control remaining": 80.2087},
      {"molecule": "O=C1CC2(CCN(Cc3ccc(C(F)(F)F)cc3)CC2)CN1", "note": "[CBK283359]", "% of control remaining": 102.788},
      {"molecule": "Cc1cccc(=O)n1CCCNc1cc(C2CCOC2)nc(N)n1", "note": "(stereo not shown) [CBK307030]", "% of control remaining": 69.0877},
      {"molecule": "Cc1ccnc(NCC2CCN(CC(=O)NC3(C#N)CCCC3)C2)c1", "note": "(stereo not shown) [CBK306128]", "% of control remaining": 72.84},
      {"molecule": "O=C(Nc1cccc2cc[nH]c12)c1cc(F)c(Cl)cc1F", "note": "[CBK160080]", "% of control remaining": 103.526},
      {"molecule": "CC(=O)c1ccc(NC(=O)c2cccc(Cl)c2)cc1", "note": "[CBK033939]", "% of control remaining": 46.1143},
      {"molecule": "CC(=O)Nc1cccc(-n2cnnc2SCC2CCCCC2)c1", "note": "[CBK305054]", "% of control remaining": 27.4847},
      {"molecule": "O=C(Cn1c(C2CCCNC2)cc2cccnc21)NC1CCCC1", "note": "(stereo not shown) [CBK285059]", "% of control remaining": 73.1657},
      {"molecule": "O=C(Nn1cnnc1)c1ccc(C(=O)Nn2cnnc2)cc1", "note": "[CBK261111]", "% of control remaining": 103.576},
      {"molecule": "CCOc1cccc(-c2cncc(NC(C)CCCC(C)(C)O)n2)c1", "note": "(stereo not shown) [CBK066020]", "% of control remaining": 175.595},
      {"molecule": "C1=C(CNC(Cc2cccs2)c2nccs2)COCC1", "note": "(stereo not shown) [CBK284682]", "% of control remaining": 53.2908},
      {"molecule": "CC1=C(C(=O)Nc2ccccc2)C(c2cccs2)C(C#N)=C(SCC(=O)c2ccc(Br)cc2)N1", "note": "(stereo not shown) [CBK261384]", "% of control remaining": 65.5073},
      {"molecule": "COc1ccccc1N1C(=O)[C@H]2N=C(C(=O)c3cnccn3)N[C@H]2C1=O", "note": "[CBK021406]", "% of control remaining": 102.854},
      {"molecule": "CN(CC(=O)NC1CCCCC1)S(=O)(=O)c1ccc(F)cc1", "note": "[CBK091832]", "% of control remaining": 71.0599},
      {"molecule": "O=C(OCn1nnc2ccccc2c1=O)c1cccc([N+](=O)[O-])c1", "note": "[CBK264887]", "% of control remaining": 80.9706},
      {"molecule": "CC(C)Cc1csc(C2CN3CCCC3CO2)n1", "note": "(stereo not shown) [CBK304807]", "% of control remaining": 71.2017},
      {"molecule": "Cc1ccc(S(=O)(=O)NC(=O)N(Cc2ccccc2)Cc2ccco2)cc1", "note": "[CBK269524]", "% of control remaining": 103.205},
      {"molecule": "CC(C)c1ccc(S(=O)(=O)n2c(=O)n(CCc3c[nH]c4ccccc34)c3ccccc32)cc1", "note": "[CBK106518]", "% of control remaining": 82.3792},
      {"molecule": "Cn1c(N2CC[C@H](O)C2)nc2cc(C(=O)NC[C@@H]3CCCO3)ccc21", "note": "[CBK307433]", "% of control remaining": 74.9818},
      {"molecule": "Cc1cccc(-c2ccc(CC3(C(=O)NC(C)C)CCN(C(=O)C(C)(C)C)CC3)cc2)c1", "note": "[CBK285758]", "% of control remaining": 118.809},
      {"molecule": "Cn1nccc1C(=O)Nc1nc(-c2ccccc2)cs1", "note": "[CBK287833]", "% of control remaining": 68.5673},
      {"molecule": "COc1ccc(CC(=O)NCc2nc(-c3ccc(OC)cc3)no2)cc1", "note": "[CBK270043]", "% of control remaining": 83.9033},
      {"molecule": "CC(C)Cn1c(=O)[nH]c2ncc(-c3cncnc3)nc21", "note": "[CBK064177]", "% of control remaining": 105.724},
      {"molecule": "O=C(c1cccnc1)N1CCN(Cc2cccc([N+](=O)[O-])c2)CC1", "note": "[CBK263020]", "% of control remaining": 84.9764},
      {"molecule": "COc1ccccc1Oc1nnnn1-c1ccc(C(N)=O)cc1", "note": "[CBK267988]", "% of control remaining": 115.867},
      {"molecule": "COC(=O)c1ccc(Cl)cc1N(Cc1c(F)cccc1Cl)S(C)(=O)=O", "note": "[CBK021351]", "% of control remaining": 87.0725}
    ]}
  ]
}
